Data from PubChem BioAssay AID686979 (National Center for Advancing Translational Sciences (NCATS), 2013).
“And” between values parts separate entries of the source, which are not always exact repeats. Identical values can stand only once. About 50,000 (12%) of roughly 420,000 compounds were called active. Inconclusive means that the source gave no clear call. Such entries were picked first, then a sample of the others. Calls come from the whole dose curve; as a rule, active = well fitted inhibition curve with a large enough effect; inconclusive = small, poorly fitted or top-dose-only effect; inactive = flat fitted curve, though single readings scatter. Potencies of inconclusive entries are doubtful fits and often do not repeat.
% is set by controls: 0 for no effect and ±100 for the full control effect; potency is the fitted concentration of half-maximal effect; tags give direction and shape of the fitted curve.

Assay: qHTS for Inhibitors of human tyrosyl-DNA phosphodiesterase 1 (TDP1): qHTS in cells in presence of CPT; note: nearly all actives have a fitted effect of over 55% in size
Settings: chicken DT40 Tdp1-/-;hTDP1 cells + 20 nM CPT, ATP luminescence, 48 h; activity change, negative = growth inhibition: at 46.2 µM (top of the series) unless noted
How it was run: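 Chicken DT40 Tdp1-/- cells complemented with human TDP1, 400 cells/well, exposed to compounds plus 20 nM camptothecin for at least 48 h at 37 C; viability read as ATP content by CellTiter-Glo luminescence.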
For `CC1([N+](=O)[O-])COP(=O)(NCc2cccnc2)OC1` (stereo not drawn), the Potency was “inactive”. With `CC1=C/C(=N\NC(=S)NCCc2ccccc2)CC(C)(C)C1` the Potency was inconclusive: 18.4 µM [inhibitor, single point]. For `Oc1ccc(CCNCc2cc3c(cc2Br)OCO3)cc1`, the Potency was inconclusive: 20.6 µM [inhibitor, single point]. For `O=C(c1cn(Cc2ccccc2F)c2ncccc12)C(F)(F)F`, the Potency was “inactive”. For `Cn1c(O)c(/C=C2\C=c3ccccc3=NC2=O)c(=O)n(C)c1=O`, the Potency was inconclusive: 16.4 µM [inhibitor, partial curve]. In the case of `NC(=O)c1cn(C2OC(CO)C(O)C2O)c2ncnc(N)c12` (stereo not drawn), the Potency is reported as active: 82 nM and active: 8.2 nM. For `CCOP(=O)(OCC)C(NC(=O)Nc1ccc(Cl)c(Cl)c1)c1ccccc1` (stereo not drawn), the Potency was inconclusive: 29.1 µM [inhibitor, single point]. In the case of `COP(=O)(OC)C(Nc1ccccn1)c1ccccc1` (stereo not drawn), the Potency is reported as “inactive”. In the case of `COc1ccc(CC2(CCc3ccncc3)C(=O)NC(=O)NC2=O)cc1OC`, the Potency is reported as “inactive”. With `CC(C)(C)C(=O)OCC12CCC(O1)C1(C)C(=O)OCC21` (stereo not drawn) the Potency was “inactive”. With `O=C1CN=C(c2ccccc2Cl)c2cc(Br)ccc2N1` the Potency was “inactive”. In the case of `CCC[C@H](N[C@@H](CCC)[C@H](O)c1ccccc1)[C@H](O)c1ccccc1`, the Potency is reported as active: 25.9 µM. With `COc1cccc2c1C13CC[N+]4(CC5CC5)CO[C@]1(CCC(=O)C3)C4C2` the Potency was “inactive”. In the case of `Cc1ccc(CN2C3CCCC2CC(NC(=O)Nc2cccc(F)c2)C3)cc1` (stereo not drawn), the Potency is reported as inconclusive: 29.1 µM [inhibitor, single point]. In the case of `O=c1c2ccccc2nc(CNCC2CCCO2)n1-c1ccc(F)cc1` (stereo not drawn), the activity change, negative = growth inhibition is reported as inconclusive: -31.8% [inhibitor]. For `Cc1ccccc1NC(=O)NCCN1CC1`, the Potency was active: 4.11 µM. With `O=C(c1ccc2c3c(cccc13)CC2)C1CCCN(CC2CC2)C1` (stereo not drawn) the Potency was active: 18.4 µM. For `Cc1csc2nc(COC(=O)c3ccccc3NC(=O)c3ccc(F)cc3)cc(=O)n12`, the Potency was inconclusive: 23.1 µM [inhibitor, single point]. For `O=C(C[n+]1ccn(CCCNP2(=O)C=C(c3ccccc3)OC(c3ccccc3)=C2)c1)c1ccccc1`, the Potency was inconclusive: 23.1 µM [inhibitor, single point]. In the case of `CC1(C)C(C(=O)N2CCN(C(=O)c3ccccc3)CC2)C1(C)C`, the Potency is reported as “inactive”. With `COc1ccc(CNC(=O)Cn2c(SCC(=O)Nc3ccc(C)c(C)c3)nc3ccccc32)cc1` the Potency was inconclusive: 25.9 µM [inhibitor, partial curve, poor fit]. For `CCOc1ccc(N(CC)S(=O)(=O)c2ccc3c(c2)oc(=O)n3C)cc1`, the Potency was inconclusive: 29.1 µM [inhibitor, single point]. For `CCC(=NCCCn1ccnc1)c1c(O)n(-c2ccc(OC)cc2)c(=O)[nH]c1=O`, the Potency was “inactive”. With `Cc1cc2ccccc2n1-c1ccc(C(=O)N2CCC(C(=O)NCc3ccc(Cl)cc3)CC2)s1` the Potency was active: 4.11 µM. With `CCOC(=O)c1ccc2c(c1)N(C)C(=O)c1ccccc1S2` the Potency was inconclusive: 23.1 µM [inhibitor, single point]. For `CC1CCC(NC(=O)CN2CCN(S(=O)(=O)c3ccc(Br)s3)CC2)CC1` (stereo not drawn), the Potency was active: 16.4 µM. For `CCOC(=O)C1SC2(C(F)F)CC1(O)c1c(c(OC)c3occc3c1OC)O2` (stereo not drawn), the Potency was inconclusive: 23.1 µM [inhibitor, single point]. In the case of `Cc1ccc(N=C(N(C)C)P(=O)(N(C)C)N(C)C)cc1`, the Potency is reported as “inactive”. In the case of `COc1cc2c(cc1OC)C(C(=O)NC(C)C)C1CCCCN1C2=O` (stereo not drawn), the Potency is reported as “inactive”. With `COc1ccc(CN2Cc3cc(N4CCOCC4)ccc3-n3nncc3C2)cc1` the Potency was active: 20.6 µM. For `CC(C(N)=O)N1CC(c2ccccc2)CC1=O` (stereo not drawn), the activity change, negative = growth inhibition was inconclusive: 7.45% [inhibitor]. With `Cc1ccc(N2CCNCC2C)cc1` (stereo not drawn) the Potency was inconclusive: 29.1 µM [inhibitor, single point]. In the case of `C=CCN1C(=O)NC(=O)/C(=C/c2cccn2C)C1=O`, the Potency is reported as inconclusive: 18.4 µM [inhibitor, single point]. For `Cc1ccc(-c2nc3ccccc3c(=O)n2-c2ccc(O)cc2)cc1`, the Potency was active: 2.59 µM. In the case of `CN(Cc1c[nH]c2ccccc12)C1CCCCC1`, the Potency is reported as active: 0.411 µM. In the case of `Cc1ccc(CCNC(=O)Cn2nc(C)c3c(C)n(-c4ccc(C)cc4)nc3c2=O)cc1`, the Potency is reported as active: 23.1 µM. In the case of `O=c1c2ccccc2nc(/C=C/c2ccccc2)n1-c1ccc(O)cc1`, the Potency is reported as inconclusive: 25.9 µM [inhibitor, single point]. For `CCCn1c(C)cc(C=O)c1C`, the Potency was “inactive”. For `CCC(C)(O)C(=O)OC1C(=O)OC2CC3C(C)=CC(=O)C(O)C3(C)C3C4(O)OCC23C1C(C)C4O` (stereo not drawn), the Potency was active: 0.116 µM. In the case of `CCN(CC)c1ccc(/C=C/[N+](=O)[O-])cc1`, the Potency is reported as inconclusive: 14.6 µM [inhibitor, partial curve]. With `COc1ccc2c3c([nH]c2c1)C(C)=NCC3` the Potency was inconclusive: 29.1 µM [inhibitor, single point] and inconclusive: 11.9 µM [inhibitor, partial curve]. In the case of `CC1CC(OP(O)(=S)c2ccc(N(C)C)cc2NC(=O)c2cccs2)CC(C)(C)C1` (stereo not drawn), the Potency is reported as inconclusive: 20.6 µM [inhibitor, single point]. With `CCC(C)(C)c1ccc(O)cc1` the Potency was “inactive”. For `CCCc1cc(=O)oc2cc(OCC(=O)N3C[C@H]4C[C@@H](C3)c3cccc(=O)n3C4)ccc12`, the Potency was “inactive”. With `Fc1ccc(C2=CCN(C(c3cccs3)c3nnnn3CCc3ccccc3)CC2)cc1` (stereo not drawn) the Potency was inconclusive: 29.1 µM [inhibitor, single point]. With `Cn1c2ccccc2c2c(C(=O)N3CCC4(CC3)OCCO4)cn(C3CCCC3)c(=O)c21` the Potency was inconclusive: 20.6 µM [inhibitor, single point]. In the case of `COc1ccc(CCNC2CCCCCC2)cc1`, the Potency is reported as inconclusive: 32.6 µM [inhibitor, single point]. In the case of `COc1cccc(C2C([N+](=O)[O-])=C(N)Oc3c2c(=O)oc2ccccc32)c1` (stereo not drawn), the Potency is reported as “inactive”. In the case of `Cc1cc(N(CCCl)CCCl)ccc1C=NNC(=O)Cc1cc(=O)oc2cc(O)ccc12`, the Potency is reported as active: 11.6 µM. With `O=C1NC(=O)C2(C(=O)N1)C(c1ccc(F)cc1)NC(=S)NC2c1ccc(F)cc1` (stereo not drawn) the Potency was “inactive”. With `COc1ccc(C2=CC(c3ccc4c(c3)OCO4)c3c(c4ccccc4oc3=O)O2)cc1OC` (stereo not drawn) the Potency was active: 14.6 µM. For `CN(C)C(=O)Oc1ccc2c(c1)O/C(=C\c1cccc(Cl)c1)C2=O`, the Potency was “inactive”. With `FC(F)(F)c1ccc(CNCCc2c[nH]c3ccccc23)cc1` the Potency was inconclusive: 23.1 µM [inhibitor, single point]. For `c1ccc(CN2CCC3(CCc4ccccc43)CC2)cc1`, the Potency was active: 23.7 µM. With `COc1ccc(NP(=O)(Nc2ccc(OC)cc2)Oc2ccccc2)cc1` the Potency was “inactive”. With `O=c1[nH]c(=S)n(C2CC2)c(O)c1C=NCC1CCCO1` (stereo not drawn) the Potency was “inactive”. In the case of `C[C@@H](N)Cc1cnc[nH]1`, the Potency is reported as inconclusive: 29.1 µM [inhibitor, single point]. With `Cc1nc2ccccc2c(=O)n1-c1ccc(-c2ccccc2)cc1` the Potency was inconclusive: 23.1 µM [inhibitor, single point]. In the case of `Cc1ccc(C(=O)C2(C)N(O)C(C)C(c3cccs3)=[N+]2[O-])cc1` (stereo not drawn), the Potency is reported as “inactive”. With `O=[N+]([O-])c1cccnc1N1CCCNCC1` the Potency was “inactive”. For `O=C1NC(=S)N(c2ccccc2)C(=O)/C1=C/c1ccco1`, the Potency was inconclusive: 23.1 µM [inhibitor, single point]. For `Cc1ccc(-c2nc3ccc(Cl)cc3n2OC(=O)N(C)C)cc1`, the Potency was inconclusive: 25.9 µM [inhibitor, single point]. In the case of `C=CCN(CC=C)C(=O)Nc1ccc(OCC)cc1`, the Potency is reported as “inactive”. For `Cn1cc(/C=C2\C(=O)NC(=O)N(c3ccccc3)C2=O)c2ccccc21`, the Potency was “inactive”. With `CC(C)(C)n1nnnc1C(c1ccnc2ccccc12)N1CCC2(CC1)C(=O)NCN2c1ccccc1` (stereo not drawn) the Potency was inconclusive: 18.4 µM [inhibitor, single point]. In the case of `CC(C)OP(=O)(Oc1ccc(C(O)C(Cl)(Cl)Cl)cc1)OC(C)C` (stereo not drawn), the Potency is reported as inconclusive: 29.1 µM [inhibitor, single point]. In the case of `CCC1(C(=O)c2ccc(C)cc2)C2c3ccccc3OC(=O)C21C(=O)O` (stereo not drawn), the Potency is reported as “inactive”. With `COc1ccc(Cn2c(N)c(C(=O)NCc3ccco3)c3nc4ccccc4nc32)cc1OC` the Potency was active: 6.51 µM. For `COc1ccc(C2CC(=O)Nc3cc4c(cc32)OCO4)c(OC)c1` (stereo not drawn), the Potency was inconclusive: 18.4 µM [inhibitor, single point]. In the case of `O=C(COc1ccccc1)N1CCN(CC(O)COc2ccccc2)CC1` (stereo not drawn), the Potency is reported as “inactive”. With `O=C1C2CCN(CC2)[C@@H]1Cc1ccc2ccccc2c1O` the Potency was inconclusive: 18.4 µM [inhibitor, single point]. For `COc1ccc(Br)cc1C1SCC(=O)Nc2c1c(C)nn2-c1ccccc1C` (stereo not drawn), the Potency was inconclusive: 29.1 µM [inhibitor, single point]. With `CCCC1=Nc2cc(C(=O)NCCCN(CC)CC)ccc2Sc2ccccc21` the Potency was inconclusive: 29.1 µM [inhibitor, single point]. With `O=C(c1ccc(-c2ccccc2)c(F)c1)C1CCCN(CCO)C1` (stereo not drawn) the Potency was inconclusive: 20.6 µM [inhibitor, single point]. In the case of `O=[N+]([O-])c1ccc(N(CCO)CCO)c2c1no[n+]2[O-]`, the Potency is reported as active: 0.092 µM. For `CCn1c(O)c(C=Nc2ccc(N3CCOCC3)cc2)c(=O)n(CC)c1=S`, the Potency was inconclusive: 18.4 µM [inhibitor, partial curve]. In the case of `N=C1c2ccccc2CN1NC(=O)c1ccc(Br)o1`, the Potency is reported as “inactive”. With `CCn1c(=N)n(Cc2ccccc2F)c2ccccc21` the Potency was inconclusive: 20.6 µM [inhibitor, single point].
